Measured values published in PubChem BioAssay AID1345083 (National Center for Advancing Translational Sciences (NCATS), 2018).
In all, about 94,000 compounds went through this assay and about 6,200 (6.6%) were called active. The shares of active, inactive and inconclusive entries below differ from those in the screen. Calls follow the shape of the dose curve; as a rule, active = well fitted inhibition curve with a large enough effect; inconclusive = small, poorly fitted or top-dose-only effect; inactive = flat fitted curve, though single readings scatter. Potencies beside an inconclusive call are fits to weak or partial responses and may not hold up.

Assay: Cytotoxic Profiling in HEK 293 Cell Line of Diverse Libraries Using Quantitative High-Throughput Screening; also: nearly all actives have a fitted effect of over 60% in size
Conditions: HEK 293 viability, ATP luminescence (CellTiter-Glo), 48-72 h; series mostly up to 115 µM
Procedure, shortened: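 qHTS cytotoxicity; HEK 293, 250 cells/well; compound pinned; 48 or 72 hr, 37 degree Celsius, 5% CO2, 95% humidity; CellTiter-Glo, 10 min RT; luminescence (ATP).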
Potency is read from the fitted curve at half-maximal effect; tags tell the direction and shape of the fitted curve.

Question: Which Potency does the source give for `O=C1CC(c2noc(-c3cc(Cl)ccc3F)n2)CN1c1ccc(F)cc1` (stereo unspecified) here?
Answer: inconclusive: 89.1 µM [inhibitor, single point]

Question: Which Potency does the source give for `COc1cncc(Nc2cnc3ccc(-c4ccc(OC)nc4)nn23)c1` here?
Answer: inconclusive: 56.2 µM [inhibitor, full curve]

Question: Which Potency does the source give for `CCOc1cccc(CNC(=O)c2noc(-c3ccc(F)cc3)n2)c1` here?
Answer: inconclusive: 89.1 µM [inhibitor, single point]

Question: With `O=C(Nc1ccccc1)N1CCCN(CCn2nc3n(c2=O)CCCC3)CC1` as the compound, how does the Potency read?
Answer: inactive

Question: With `CCOCCC(=O)N1CCCC(c2cc(N3CCOCC3)nc(C)n2)C1` (stereo unspecified) as the compound, how does the Potency read?
Answer: inactive

Question: Which Potency does the source give for `O=C(C1CCOCC1)N1CCC(c2noc(COc3ccc(F)cc3)n2)C1` (stereo unspecified) here?
Answer: inactive

Question: For `Cc1nn2c(c1-c1ccccc1N1CCCC1)N(C(=O)c1cc3ccccc3n1C)CCC2`, which Potency is on record?
Answer: active: 50.1 µM

Question: For `COc1ccc(CCNC(=O)C2CCN(c3nccc(Nc4ccc(C)cc4)n3)CC2)cc1`, which Potency is on record?
Answer: inconclusive: 15.8 µM [inhibitor, full curve, poor fit]

Question: With `C[S+](=O)([O-])c1ccc(-c2cc(C(=O)NCc3ccccc3)nn3cccc23)cc1` as the compound, how does the Potency read?
Answer: inconclusive: 15.8 µM [inhibitor, full curve]

Question: With `CC1=C[C@@H](CNC(=O)c2ccc(F)cc2)[C@H](C(C)C)C[C@H]1CC(=O)N1CCN(C)CC1` as the compound, how does the Potency read?
Answer: inconclusive: 25.1 µM [inhibitor, full curve, poor fit]

Question: Which Potency does the source give for `COc1ccccc1/C=C/CN1CCCC(CNC(=O)COc2ccccc2OC)C1` (stereo unspecified) here?
Answer: inconclusive: 35.5 µM [inhibitor, partial curve, poor fit]

Question: With `O=C(NC1CCCCC1)C1CN(S(=O)(=O)c2cc(F)cc(F)c2)CC12CCOCC2` (stereo unspecified) as the compound, how does the Potency read?
Answer: inactive

Question: With `NC(=O)c1cccc(CN2CCC3(Cc4ccccc4N(C(=O)c4ccc(Cl)cc4)C3)C2)c1` (stereo unspecified) as the compound, how does the Potency read?
Answer: active: 35.5 µM

Question: With `COc1ccc(CNC(=O)N2CCc3c(nc(-c4ccc(OC)cc4)[nH]c3=O)C2)cc1` as the compound, how does the Potency read?
Answer: inactive

Question: With `Cc1ccc(-c2ccc3nnc(CNC(=O)c4cccn4C)n3n2)cc1C` as the compound, how does the Potency read?
Answer: inconclusive: 89.1 µM [inhibitor, single point]

Question: With `CCOCC1(C)COc2ccc(C(=O)Nc3ccc(OC)nc3)cc2N1` (stereo unspecified) as the compound, how does the Potency read?
Answer: inconclusive: 79.4 µM [inhibitor, partial curve, poor fit]

Question: With `COc1ccc(-c2ccnc3nc(CC(C)C)nn23)c(F)c1` as the compound, how does the Potency read?
Answer: inconclusive: 89.1 µM [inhibitor, single point]

Question: With `CCN1C(=O)CCC2(C(=O)NCCc3c[nH]c4ccccc34)CCCC=C12` (stereo unspecified) as the compound, how does the Potency read?
Answer: inactive

Question: With `O=C(Nc1ccc(Cl)cc1)c1cc2n(n1)CC(c1ccc3c(c1)OCO3)OC2` (stereo unspecified) as the compound, how does the Potency read?
Answer: inconclusive: 44.7 µM [inhibitor, partial curve, poor fit]

Question: Which Potency does the source give for `O=C(C1CCCCC1)N1CC[C@H](c2nc3ccccc3s2)C1` here?
Answer: inconclusive: 112 µM [inhibitor, partial curve]

Question: With `C#CCNC(=O)[C@@H]1Cc2cn(Cc3nccn3C)c3cccc(c23)[C@H](CC(C)C)N1` as the compound, how does the Potency read?
Answer: inconclusive: 70.8 µM [inhibitor, partial curve, poor fit]

Question: Which Potency does the source give for `Cc1ccnn1CC(=O)NCc1cccnc1Oc1cccc(C(F)(F)F)c1` here?
Answer: inconclusive: 50.1 µM [inhibitor, partial curve, poor fit]

Question: For `CC(C)N1C(=O)OCC12CCN(C(=O)c1ccc(Oc3ccccc3)cc1)C2` (stereo unspecified), which Potency is on record?
Answer: inconclusive: 112 µM [inhibitor, partial curve, poor fit]

Question: For `Cc1noc(-c2ccc(OC3CN(C(=O)c4sccc4C)C3)cc2)n1`, which Potency is on record?
Answer: inconclusive: 50.1 µM [inhibitor, partial curve, poor fit]

Question: With `COc1ccc(C(=O)N2CCCCC2c2nc(CCOCC3CCOCC3)no2)cc1F` (stereo unspecified) as the compound, how does the Potency read?
Answer: inconclusive: 39.8 µM [inhibitor, partial curve, poor fit]

Question: Which Potency does the source give for `Cc1oc(-c2ccc(C(F)(F)F)cc2)nc1CN(C)C(C)c1cccs1` (stereo unspecified) here?
Answer: inconclusive: 79.4 µM [inhibitor, partial curve, poor fit]

Question: Which Potency does the source give for `COc1ccc(OCc2nc(C)c(CCO)c(=O)n2CC(=O)NCc2cccs2)cc1` here?
Answer: inactive

Question: Which Potency does the source give for `Cc1ccc(CNC(=O)Nc2cnc3c(c2)CCC3)cc1` here?
Answer: inconclusive: 44.7 µM [inhibitor, partial curve]

Question: With `CN1CCC(C(=O)N2Cc3ccccc3CC3(CCCN(Cc4ccncc4)C3)C2)CC1` (stereo unspecified) as the compound, how does the Potency read?
Answer: inactive

Question: For `COc1cc(F)ccc1-c1nccc2c(=O)cc(-c3cnn(C)c3)oc12`, which Potency is on record?
Answer: inconclusive: 63.1 µM [inhibitor, partial curve, poor fit]

Question: Which Potency does the source give for `Cc1cc(C[C@@H]2COC[C@@H]2NC(=O)c2c(-c3ccccc3)noc2C)on1` here?
Answer: inactive

Question: Which Potency does the source give for `O=C(Cc1cc(F)c(F)c(F)c1)N1CCC(Cc2cccc(CO)c2)C1` (stereo unspecified) here?
Answer: inactive

Question: With `CN(C)c1ccc(CN2CC[C@H](c3nc4cc(Cl)ccc4o3)C2)cc1` as the compound, how does the Potency read?
Answer: inconclusive: 79.4 µM [inhibitor, partial curve, poor fit]

Question: Which Potency does the source give for `COc1ccc(F)cc1-c1ccc(CN2CCCCC2C(=O)NCc2ccc3c(c2)OCO3)cc1` (stereo unspecified) here?
Answer: inconclusive: 17.8 µM [inhibitor, full curve, poor fit]

Question: With `CC(C)C(=O)N1CCC2(CC1)OC(=O)N(Cc1ccccc1F)C2(C)c1ccccc1` (stereo unspecified) as the compound, how does the Potency read?
Answer: inconclusive: 100 µM [inhibitor, partial curve, poor fit]

Question: Which Potency does the source give for `COCCn1c(=O)c(C(=O)NCc2cccc(F)c2)nc2cccnc21` here?
Answer: inactive

Question: Which Potency does the source give for `CN(C)CCOCC1(C)COc2ccc(C(=O)Nc3cccc(Cl)c3)cc2N1` (stereo unspecified) here?
Answer: active: 63.1 µM

Question: Which Potency does the source give for `Cc1cc(C(=O)N2CCC3(CC2)NCCc2c3[nH]c3ccccc23)n(C)n1` here?
Answer: inactive

Question: For `O=C(c1ccccc1F)N1CCCC(Cc2nncn2CC2CC2)C1` (stereo unspecified), which Potency is on record?
Answer: inactive

Question: With `CC(C)C[C@@H]1N[C@H](C(=O)NCC2CC2)Cc2cn(Cc3ccncc3)c3cccc1c23` as the compound, how does the Potency read?
Answer: active: 35.5 µM

Question: Which Potency does the source give for `Cc1ccccc1-c1cc(C(=O)NCCc2cnc[nH]2)c2c(c1)N(C)CCO2` here?
Answer: inconclusive: 100 µM [inhibitor, partial curve]

Question: For `Cc1nc(C)c(C(=O)N2CCCCCNC(=O)[C@@H]3CCC[C@@H]32)s1`, which Potency is on record?
Answer: inactive

Question: For `CCOCCc1nc(C2CCOC2)nn1C1CCCCC1` (stereo unspecified), which Potency is on record?
Answer: inactive

Question: With `O=C(CCC[C@@H]1[C@H]2CCCN3CCC[C@@H](CN1Cc1ccccc1)[C@@H]23)NCc1ccncc1` as the compound, how does the Potency read?
Answer: inactive

Question: Which Potency does the source give for `O=C(C[C@H]1NC(=O)c2ccccc2NC1=O)Nc1n[nH]c(CCc2ccccc2)n1` here?
Answer: inactive

Question: For `COc1cc2c(cc1OC)CN(C1CCCN(Cc3c(O)cccc3OC)C1)CC2` (stereo unspecified), which Potency is on record?
Answer: inactive

Question: Which Potency does the source give for `COCCNC(=O)c1ccc2c(c1)OCCN(c1cccc(OC(F)(F)F)c1)C2` here?
Answer: inconclusive: 17.8 µM [inhibitor, full curve, poor fit]

Question: With `O=C1CC2(CCN(Cc3ccc(F)cc3)CC2)Oc2ccccc2N1c1ccccc1` as the compound, how does the Potency read?
Answer: active: 50.1 µM

Question: With `O=C(NCCc1ccccc1)c1ccc2nnc(Cc3ccco3)n2c1` as the compound, how does the Potency read?
Answer: inconclusive: 112 µM [inhibitor, partial curve, poor fit]

Question: With `CN1CCN([C@H]2[C@@H]3OC[C@@H](O3)[C@@H](NCc3ccc(-c4ccccc4)cc3)[C@@H]2O)CC1` as the compound, how does the Potency read?
Answer: inconclusive: 126 µM [inhibitor, partial curve, poor fit]

Question: For `CCCC(=O)N1Cc2ccccc2CC2(CCN(CCc3ccccc3)CC2)C1`, which Potency is on record?
Answer: inconclusive: 56.2 µM [inhibitor, partial curve, poor fit]

Question: With `CN1CCC2(C1)CN(CC1CC1)c1ccc(C(=O)NCCOc3ccccc3)cc12` (stereo unspecified) as the compound, how does the Potency read?
Answer: active: 56.2 µM

Question: With `COc1ccc(NC(=O)Cn2c(N3CCc4ccccc4C3)nc(C)cc2=O)cc1Cl` as the compound, how does the Potency read?
Answer: active: 39.8 µM

Question: With `CCC(NC(=O)c1ccc2nc(-c3ccc(F)cc3)cn2c1)c1ncc(C)[nH]1` (stereo unspecified) as the compound, how does the Potency read?
Answer: inconclusive: 50.1 µM [inhibitor, partial curve, poor fit]

Question: Which Potency does the source give for `CCC(C)NC(=O)c1cc2n(n1)CC(c1ccc3c(c1)OCO3)OC2` (stereo unspecified) here?
Answer: inconclusive: 89.1 µM [inhibitor, single point]

Question: Which Potency does the source give for `COc1ccc(C2C(C(=O)OC(C)(C)C)=C(C)N=C3SC=C(CC(=O)N4CCCC4)N32)cc1OC` (stereo unspecified) here?
Answer: inconclusive: 89.1 µM [inhibitor, single point]

Question: With `Cc1nc(CCC(=O)NCc2ccc3[nH]c(-c4ccccc4F)c(C)c3c2)n[nH]1` as the compound, how does the Potency read?
Answer: inconclusive: 12.6 µM [inhibitor, full curve, poor fit]

Question: Which Potency does the source give for `CC1(C)[C@H]2CC[C@@H](CNC(=O)c3ccc(Cl)cc3)[C@@H]1C2` here?
Answer: inconclusive: 50.1 µM [inhibitor, partial curve, poor fit]

Question: With `Cc1cc(C(=O)NCc2c(C)ncc3c2CCNC3)ccc1F` as the compound, how does the Potency read?
Answer: inactive

Question: With `O=C(Cc1ccccn1)N1CCc2nc(-c3ccccc3)nc(-c3ccc(Cl)cc3)c2C1` as the compound, how does the Potency read?
Answer: inconclusive: 50.1 µM [inhibitor, partial curve, poor fit]

Question: Which Potency does the source give for `Cc1ccc(C(=O)N2CCCN(C(=O)C3CC3)c3ccccc32)cc1F` here?
Answer: inconclusive: 56.2 µM [inhibitor, partial curve, poor fit]

Question: With `Cn1cnnc1CC1CCN(C(=O)CCc2ccccc2)CC1` as the compound, how does the Potency read?
Answer: inactive

Question: With `Cc1nn2c(c1-c1ccccc1[S+](C)(=O)[O-])N(C(=O)c1ccccc1)CCC2` as the compound, how does the Potency read?
Answer: inactive

Question: Which Potency does the source give for `COC(=O)c1cccc(NC(=O)N2CCC3(CCC(=O)N(Cc4ccccc4)CC3)CC2)c1` here?
Answer: inconclusive: 79.4 µM [inhibitor, partial curve]

Question: With `COc1ccc(C(=O)N2CCc3nc(C)nc(-c4ccc(O)cc4)c3C2)cc1` as the compound, how does the Potency read?
Answer: inconclusive: 56.2 µM [inhibitor, partial curve, poor fit]

Question: With `COc1ccccc1CNC(=O)c1ccc2nnc(-c3ccc(Cl)cc3)n2c1` as the compound, how does the Potency read?
Answer: inconclusive: 44.7 µM [inhibitor, partial curve, poor fit]
